From PubChem BioAssay AID1476 (National Center for Advancing Translational Sciences (NCATS), 2009)
Screen size: about 200,000 compounds; about 4,500 (2.2%) were called active. The shares of active, inactive and inconclusive entries below differ from those in the screen. Calls come from the whole dose curve; as a rule, active = well fitted inhibition curve with a large enough effect; inconclusive = small, poorly fitted or top-dose-only effect, or effect the other way; inactive = flat fitted curve, though single readings scatter. Where the call is inconclusive, the potency comes from a doubtful curve fit.

Target: Cruzipain (Trypanosoma cruzi) (UniProt P25779)
Chain of UniProt P25779 (P25779 whole entry, looked up): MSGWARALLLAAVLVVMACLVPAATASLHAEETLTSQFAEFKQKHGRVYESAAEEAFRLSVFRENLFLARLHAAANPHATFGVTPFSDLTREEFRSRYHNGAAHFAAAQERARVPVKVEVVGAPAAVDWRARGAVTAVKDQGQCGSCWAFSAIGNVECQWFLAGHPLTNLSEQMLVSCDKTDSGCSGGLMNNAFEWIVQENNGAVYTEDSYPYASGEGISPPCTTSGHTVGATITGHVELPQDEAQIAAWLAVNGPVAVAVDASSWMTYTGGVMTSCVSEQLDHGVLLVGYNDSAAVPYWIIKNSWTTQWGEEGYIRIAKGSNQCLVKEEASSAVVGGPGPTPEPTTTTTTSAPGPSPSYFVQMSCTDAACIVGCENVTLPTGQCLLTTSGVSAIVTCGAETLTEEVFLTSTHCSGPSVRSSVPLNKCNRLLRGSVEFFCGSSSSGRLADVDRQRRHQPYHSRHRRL
Assay: qHTS Assay for Promiscuous and Specific Inhibitors of Cruzain (without detergent); note: nearly all actives have a fitted effect of over 40% in size;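 for max response, negative = inhibition: plate controls were enzyme without inhibitor for no effect and buffer without enzyme for full effect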
Details: purified cruzain, Z-FR-AMC fluorescence, no detergent
Procedure, shortened: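 Detergent-free condition (0.00005% Triton X-100) in acetate buffer pH 5.5 with DTT. 1.5 nM enzyme and compound were pre-mixed 15 min, then 2 uM Z-FR-AMC substrate added; reaction progress from fluorescence change between first and third reads (60 s).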
Potency is the fitted concentration of half-maximal effect; tags give direction and shape of the fitted curve.

| SMILES | Potency | max response, negative = inhibition |
| --- | --- | --- |
| CC1CCCCC1NC(=O)COC(=O)c1ccc2c(c1Cl)C(=O)c1ccccc1C2=O (stereo unspecified) | inconclusive: 31.6 µM [inhibitor, single point] |  |
| OC(CN1CCN(c2ccccn2)CC1)Cn1c2ccc(Cl)cc2c2cc(Cl)ccc21 (stereo unspecified) | inconclusive: 12.6 µM [inhibitor, single point] |  |
| CC(=O)Nc1ccc(S(=O)(=O)N2CCN(c3cccc(C)c3C)CC2)cc1 | inconclusive: 39.8 µM [activator, single point] |  |
| COc1ccccc1NC(c1ccc(Cl)cc1)c1nnc(-c2cccc(F)c2)o1 (stereo unspecified) | inconclusive: 31.6 µM [inhibitor, single point] |  |
| O=c1sc(N2CCN(c3ccccc3F)CC2)nc2ccsc12 | inconclusive: 39.8 µM [inhibitor, single point] |  |
| O=C(Cn1nnc(-c2ccccc2Cl)n1)N/N=C/c1ccc(-c2cccc(Cl)c2)o1 | active: 31.6 µM |  |
| CCOC(=O)c1ccc(NC(=O)CCc2c(C)nc3c(c(C)nn3-c3ccccc3)c2C)cc1 |  | inactive: 6.36% |
| COc1ccc(-c2nc3c(c4nnc(SC(C)C(=O)Nc5ccccc5)n24)COC(C)(C)C3)cc1 (stereo unspecified) | inconclusive: 10 µM [activator, partial curve] |  |
| Cc1ccc(CN(Cc2ccco2)C(=O)COc2ccccc2C)cc1 |  | inactive: -29.9% |
| CCOc1ccc(CCNc2ncnc3onc(-c4ccc(Cl)cc4)c23)cc1OCC | inconclusive: 31.6 µM [activator, single point] |  |
| CNS(=O)(=O)c1cn(CC(=O)N2CCN(c3ccccc3F)CC2)cc1S(=O)(=O)NC |  | inactive: 0.364% |
| CC(=O)C1C2c3ccccc3OC1(C)N=c1s/c(=C/c3cn(C)nc3C)c(=O)n12 (stereo unspecified) | inconclusive: 31.6 µM [activator, single point] |  |
| CC(=O)Nc1ccc(NC(=O)c2ccc(NS(=O)(=O)c3cc(C(C)(C)C)cc(C)c3C)cc2)cc1 | inconclusive: 39.8 µM [inhibitor, single point] |  |
| Oc1ccc(CNc2ccc(F)cc2)c2cccnc12 | inconclusive: 31.6 µM [inhibitor, single point] |  |
| N#Cc1nc(-c2cccs2)oc1NCCc1ccccc1 |  | inconclusive: 91.5% [activator] |
| COc1cccc(NC(=O)CSc2nc3ccc(NC(=O)c4cccs4)cc3s2)c1 | inconclusive: 39.8 µM [inhibitor, single point] |  |
| O=C(OCc1cccc2ccccc12)c1ccc2c(=O)[nH]c(CN3CCOCC3)nc2c1 | inconclusive: 31.6 µM [activator, single point] |  |
| CN(C(=O)c1ccno1)c1nnc(-c2ccccn2)s1 |  | inactive: 2.02% |
| N=C1N(/N=C/c2ccccc2)C(=Nc2ccccc2)C(=S)N1c1ccccc1 | inconclusive: 39.8 µM [inhibitor, single point] |  |
| O=C(N/N=C\c1ccc(Cl)cc1Cl)c1sccc1-n1cccc1 | inconclusive: 31.6 µM [inhibitor, single point] |  |
| CC1=C(C(=O)OC(C)C)C(c2cccs2)C(C(=O)OC(C)C)=C(C)N1 | inconclusive: 25.1 µM [activator, single point] |  |

| SMILES | Potency | max response, negative = inhibition |
| --- | --- | --- |
| CN(C)C(=O)COc1ccc2cc(-c3ccccc3)c(=O)oc2c1 | inconclusive: 10 µM [activator, partial curve] |  |
| CCc1cc2c(=O)c(-c3nc4ccccc4n3C)c(COCC(=O)O)oc2cc1OC(=O)C(C)(C)C | inconclusive: 39.8 µM [activator, single point] |  |
| O=C(CCc1cn(Cc2ccc(F)cc2)c2ccccc12)NCCc1ccc(Cl)cc1 |  | inactive: -25.6% |
| Cc1cccc(C(=O)Nc2sc3c(c2C(=O)N2CCCCC2)CCC(C)C3)c1 (stereo unspecified) |  | inactive: -17.9% |
| c1ccc(-c2nnc(SCc3nc4ccccc4[nH]3)o2)cc1 | active: 12.6 µM |  |
| CC1CCCC(NC(=O)c2cn(C)c3ccc(S(=O)(=O)N4CCCC4)cc3c2=O)C1C (stereo unspecified) | inconclusive: 31.6 µM [activator, single point] |  |
| c1ccc(Cn2nnc3c(N4CCc5ccccc54)ncnc32)cc1 | inconclusive: 31.6 µM [inhibitor, single point] |  |
| CC(C)CCn1c(Oc2ccccc2Cl)nc2c1c(=O)n(C)c(=O)n2C | inconclusive: 31.6 µM [activator, single point] |  |
| CC1=C(c2ccc(C)c(C)c2)S(=O)(=O)N=C1N1CCC(C(=O)N2CCC(C(N)=O)CC2)CC1 | inconclusive: 31.6 µM [activator, single point] |  |
| O=C(NCCc1ccccc1)c1nc2nc(-c3cccs3)cc(C(F)(F)F)n2n1 | inconclusive: 39.8 µM [activator, single point] |  |
| CCOC(=O)C1CCN(c2nc3c(S(=O)(=O)c4ccccc4)nnn3c3ccsc23)CC1 |  | inactive: 4.49% |
| CCC1(C)Cc2ccccc2-c2nc(NCCO)[nH]c(=O)c21 (stereo unspecified) |  | inactive: -0.956% |
| COc1ccc(C2c3c(n(C)c4ccccc34)C(=O)N2CC(=O)Nc2ccc(C)c(Cl)c2)cc1 (stereo unspecified) | inconclusive: 20 µM [inhibitor, single point] |  |
| c1ccc(-c2nnc3ccc(N4CCCC4)nn23)cc1 | inconclusive: 39.8 µM [activator, single point] |  |
| COc1cccc(C(=O)N=c2sc3c(C)ccc(OC)c3n2C)c1 | inconclusive: 31.6 µM [inhibitor, single point] |  |
| COc1cc(OC)cc(C(=O)Nc2nnc(NC(=S)Nc3ccccc3)s2)c1 | inconclusive: 31.6 µM [inhibitor, single point] |  |
| CCOc1ccc(Nc2oc(-c3ccc(Cl)cc3)nc2C#N)cc1 | inconclusive: 20 µM [inhibitor, partial curve] |  |
| Cc1ccc(CSc2cn(CC(=O)N3CCCC3)c3ccccc23)cc1 | inconclusive: 39.8 µM [activator, single point] |  |
| CCOP(=O)(OCC)C(Nc1ccccc1)c1ccc2c(c1)OCO2 (stereo unspecified) | active: 12.6 µM |  |
| O=C(c1cc(-c2ccc(Cl)cc2)n(-c2ccc(Cl)cc2)n1)N1CCOCC1 | inconclusive: 39.8 µM [activator, single point] |  |
